Measured values reported in PubChem BioAssay AID1508642 (National Center for Advancing Translational Sciences (NCATS), 2021).
Out of some 43,000 compounds screened, about 200 (0.47%) were called active. Another 12% or so got no clear call; they are omitted. Calls follow the shape of the dose curve; as a rule, active = well fitted cell-killing curve with a large enough effect; inconclusive = small, poorly fitted or top-dose-only effect, or effect the other way; inactive = flat fitted curve, though single readings scatter. The list shows a part of the results.
% is scaled to controls: 0 for no effect and ±100 for the full control effect.

Assay: Cell viability qHTS assay in S16 Pmp22-F2sN cells; also: nearly all actives have a fitted effect of over 65% in size
Details: S16 Pmp22-F2sN Schwann cells (luciferase reporters placed in the Pmp22 gene) viability, CellTiter-Glo, 24 h; series mostly up to 57.5 µM; activity change, negative = cytotoxicity: at the top concentration
Summary of the method: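 CellTiter-Glo counter-screen, qHTS, 1536-well. Cells: S16(c9) Pmp22-F2sN, 500-1,000/well in DMEM + 10% FBS. Cpd 23 nL pin transfer, 24 h, 37C/5% CO2. Read: luminescence, CCD imager.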
In the case of O=C(Nc1cccc(-c2nc3ccccc3o2)c1)c1cccc2c(Cl)cccc12, the “activity change, negative = cytotoxicity” value was inactive: 6.16%. In the case of COCCNC(=O)c1[nH]c2cc(C)ccc2c1Sc1ccc(Cl)cc1, the “activity change, negative = cytotoxicity” value was inactive: -1.64%. For COc1ccc(Cl)cc1NC(=O)CCn1c(=O)oc2ccccc21, the “activity change, negative = cytotoxicity” value was inactive: 9.28%. With Cc1ccccc1NC(=O)CSc1ccc(-c2cccs2)nn1 the “activity change, negative = cytotoxicity” value was inactive: -21.3%. In the case of O=c1[nH]c(SCc2ccc([N+](=O)[O-])cc2)nc2c1CCCC2, the “activity change, negative = cytotoxicity” value was inactive: -0.908%. In the case of O=C(CSc1nccn1Cc1ccccc1)Nc1ccc2c(c1)OCCO2, the “activity change, negative = cytotoxicity” value was inactive: -2.21%. In the case of Cc1ccc(CNC(=O)Cn2cccc2C(=O)c2ccccc2C)cc1, the “activity change, negative = cytotoxicity” value was inactive: 11.3%. In the case of O=C(CSc1nnc(COc2ccccc2)o1)Nc1cc(C(F)(F)F)ccc1Cl, the “activity change, negative = cytotoxicity” value was inactive: 2.13%. In the case of COc1ccc(NC(=O)Nc2nnc(N(CC(C)C)CC(C)C)s2)c(OC)c1, the “activity change, negative = cytotoxicity” value was inactive: -16%. In the case of CCN(C(=O)c1cc2c(s1)-c1ccccc1OC2)c1cccc(C(F)(F)F)c1, the “activity change, negative = cytotoxicity” value was inactive: 4.1%. With COc1ccc(NC(=O)c2cc(C3CC3)nc3c2c(C)nn3-c2ccccc2)cc1OC the “activity change, negative = cytotoxicity” value was inactive: -0.0607%. With O=C(Cn1ncc2c3ccccc3n(Cc3ccc(F)cc3)c2c1=O)NCCCN1CCCCC1 the “activity change, negative = cytotoxicity” value was inactive: -1.68%. With Cc1ccc(CCNC(=O)c2c(C)nn(-c3ccc(F)cc3)c2-n2cccc2)cc1 the “activity change, negative = cytotoxicity” value was inactive: 1.73%. For O=C(CCS(=O)(=O)c1cccc2nonc12)Nc1ccc(Br)cc1, the “activity change, negative = cytotoxicity” value was inactive: -19.9%. For CC1=C(C(=O)Nc2ccccc2)C(c2ccc(O)cc2)n2nc(SCc3ccccc3)nc2N1 (centres undefined), the “activity change, negative = cytotoxicity” value was inactive: 22.3%. In the case of CCOc1ccccc1NC(=O)N1CCC2(CC1)Oc1ccccc1C(=O)N2Cc1ccccc1F, the “activity change, negative = cytotoxicity” value was inactive: -1.39%. For CCc1ccc(NC(=O)C(=O)NCCc2sc3nc(-c4ccc(OC)cc4)nn3c2C)cc1, the “activity change, negative = cytotoxicity” value was inactive: 0.0173%. For Cc1ccc(CNc2nc3ccc(C)cc3n3nnnc23)cc1, the “activity change, negative = cytotoxicity” value was inactive: 0.985%. For COc1cc(NC(=O)Cn2nc3c(cc2=O)CC(C)CC3)cc(OC)c1OC (centres undefined), the “activity change, negative = cytotoxicity” value was inactive: 1.45%. In the case of COc1cc(OC)c(N(C)C(=O)c2sc3nc4n(c(=O)c3c2C)CCCCC4)cc1Cl, the “activity change, negative = cytotoxicity” value was inactive: 5.66%. For COc1ccc2[nH]cc(CCN=C(NC(=O)c3ccccc3C)Nc3nc(C)cc(C)n3)c2c1, the “activity change, negative = cytotoxicity” value was inactive: -4.27%. In the case of COc1ccc(OCC(=O)Nc2ccc(-c3nc4cc(C)c(C)cc4o3)cc2)cc1, the “activity change, negative = cytotoxicity” value was inactive: 6.72%. With CN(C)S(=O)(=O)N(CC(=O)NCCSc1ccccc1)c1ccccc1 the “activity change, negative = cytotoxicity” value was inactive: 27.6%. With CC(C)N(Cc1ccccc1)C(=O)CN1C(=O)CSc2ccc(S(=O)(=O)N3CCCC3)cc21 the “activity change, negative = cytotoxicity” value was inactive: 11.8%. With CCn1cc(C(=O)N2CCN(c3ccc(OC)cc3)CC2)c(=O)c2cc(S(=O)(=O)N3CCOCC3)ccc21 the “activity change, negative = cytotoxicity” value was inactive: -2.93%. For CC(=O)Nc1cccc(C(=O)NCc2ccc3c(c2)CCN3C(=O)c2ccc(F)cc2)c1, the “activity change, negative = cytotoxicity” value was inactive: 0.222%. With CC(=O)c1ccc(NC(=O)COCc2cc(-c3ccc(F)cc3)on2)cc1 the “activity change, negative = cytotoxicity” value was inactive: -0.883%. With COc1ccccc1NC(=O)C1=C(C)Nc2nc(SCc3ccccc3)nn2C1c1ccncc1 (centres undefined) the “activity change, negative = cytotoxicity” value was inactive: 1.39%. In the case of Cc1cc(NC(=O)c2ccc(NC(=O)CCS(=O)(=O)c3cccs3)cc2)ccc1Br, the “activity change, negative = cytotoxicity” value was inactive: -0.335%. For COc1cccc(NS(=O)(=O)c2ccc3[nH]cc(C(=O)N4CCCC4)c(=O)c3c2)c1, the “activity change, negative = cytotoxicity” value was inactive: 15.5%. For COc1ccc(-c2ccc(=O)n(CC(=O)Nc3ccc(OC)c(OC)c3)n2)cc1, the “activity change, negative = cytotoxicity” value was inactive: -7.82%. With CCOc1ccc(-c2nc(SCC(=O)Nc3cc(F)ccc3F)n3[nH]c(=O)cc3n2)cc1 the “activity change, negative = cytotoxicity” value was inactive: -1.66%. For Cn1cc(S(=O)(=O)N2CCOCC2)cc1C(=O)Nc1cccc(C#N)c1, the “activity change, negative = cytotoxicity” value was inactive: -2.54%. For CC(C)Oc1ccc(CNC(=O)Cn2nc(N3CCN(c4ccccc4)CC3)ccc2=O)cc1, the “activity change, negative = cytotoxicity” value was inactive: -21.8%. With COc1ccc(C2c3c(n(C)c4ccccc34)C(=O)N2CC(=O)Nc2ccc(F)cc2)cc1 (centres undefined) the “activity change, negative = cytotoxicity” value was inactive: -0.705%. In the case of CC(C)c1ccc(CNc2n[nH]c(-c3ccco3)n2)cc1, the “activity change, negative = cytotoxicity” value was inactive: 1.4%. For COCCNC(=O)C1=CC(c2ccc3c(c2)OCO3)=NS(=O)(=O)N1C, the “activity change, negative = cytotoxicity” value was inactive: -0.97%. In the case of CCC(=O)N1CCc2cc(OC)c(OC)cc2C1COc1ccc2c(C)cc(=O)oc2c1 (centres undefined), the “activity change, negative = cytotoxicity” value was inactive: 11.6%. With Cc1ccc(C(=O)c2oc3ccccc3c2NC(=O)Cc2ccccc2)cc1 the “activity change, negative = cytotoxicity” value was inactive: 10.5%. In the case of Cc1ccc(NC(=O)C2CCCN2S(=O)(=O)c2ccc3c(c2)n(C)c(=O)c(=O)n3C)cc1C (centres undefined), the “activity change, negative = cytotoxicity” value was inactive: 0.963%. In the case of O=C1N(Cc2ccccc2)c2ccccc2C1(O)c1c[nH]c2ccccc12 (centres undefined), the “activity change, negative = cytotoxicity” value was inactive: -3.71%. In the case of Cn1c(=O)c2c(SCC(=O)N3CCc4ccccc43)nc(-c3ccc(Cl)cc3)nc2n(C)c1=O, the “activity change, negative = cytotoxicity” value was inactive: -2.56%. With CCn1nnc2cc(C(=O)Nc3ccc(Br)cc3F)ccc21 the “activity change, negative = cytotoxicity” value was inactive: 13.2%. For Cn1ncc2c(NCc3ccc(F)cc3)ncnc21, the “activity change, negative = cytotoxicity” value was inactive: -8.74%. With CCOC(=O)c1c(S(=O)(=O)N2CCC(C(=O)N3CCN(c4ccc(F)cc4)CC3)CC2)c(C)n(C)c1C the “activity change, negative = cytotoxicity” value was inactive: 0.0457%. With CCCOc1ccc(CNC(=O)CN2C(=O)c3cccnc3Oc3ccc(C)cc32)cc1 the “activity change, negative = cytotoxicity” value was inactive: -2.53%. For COC(=O)C1CCN(c2csc3ccc(Cl)cc3c2=O)CC1, the “activity change, negative = cytotoxicity” value was inactive: -4.06%. With O=C(NCCCO)c1nn(-c2ccc(Cl)cc2)nc1CO the “activity change, negative = cytotoxicity” value was inactive: 7.99%. For O=C(CN1C(=O)COc2ccc(S(=O)(=O)N3CCOCC3)cc21)N1CCN(c2ccccc2F)CC1, the “activity change, negative = cytotoxicity” value was inactive: 11.6%.
